Survival data for 57 compounds are collected here from PubChem BioAssay AID463173 (ICCB-Longwood Screening Facility, Harvard Medical School, 2010).

Molecules are shown by their SMILES. Screen size: about 52,000 compounds; about 4,300 (8.3%) were called active. Cut-off read from the data, not from the text of the source: active = survival mostly below about 52% (no sharp cut-off); inactive = mostly above about 56%. The list shows a part of the results.

The subject of the assay is DeltatarO mutant. As to the kind of experiment: S. aureus survival, RN4220 and DeltatarO strains – OD600, teichoic acid synthesis inhibitors, primary screen (AID 463173). The note with it: S. aureus RN4220 wild type/DeltatarO growth, OD600, 18 h, hits give low values, screened at 18.75 µg/mL (by protocol).
In the case of `COc1cc(Cc2ccc(N)c(OC)c2)ccc1N`, the survival is inactive: 101%.
For the compound `Cc1ccc(CNC(=O)c2ccc3c(c2)nc2n3CCOC2)cc1`, the survival was inactive: 72%.
For `Cc1ccc(-n2nc(C)c3c(C(=O)NCCc4ccccc4)cc(C)nc32)cc1` the value was inactive: 70%.
In the case of `COc1ccc(C(C)=O)cc1CSc1nc(NCCc2ccccc2)c2ccccc2n1`, the survival was inactive: 60%.
For `COc1ccc(C(=O)NNc2ncnc3c2cnn3-c2cccc(Cl)c2)cc1OC` the value was inactive: 98%; for `COc1ccc(C(=O)c2sc3nc(-c4ccc(F)cc4)ccc3c2N)cc1`, inactive: 81%.
For `COc1ccc(-c2nc(Cn3c(SCc4cccc(C(F)(F)F)c4)nc4cccnc43)c(C)o2)cc1OC` the value was inactive: 93%; for `CC1=C(C(=O)Nc2ccc(C)cc2C)C(c2ccc(O)cc2)n2nc(SCC(=O)c3ccc(C)cc3)nc2N1` (configuration not stated), inactive: 125%.
The same measure for `Cn1c(Nc2ccc(Cl)cc2)cc(=O)n(C)c1=O`: inactive: 93%; for `COc1ccc(-c2nn3c(=O)cc(CN4CCN(S(=O)(=O)c5ccc(C)cc5)CC4)nc3s2)cc1`: inactive: 94%.
`CC(O)CN(N)C1=NS(=O)(=O)c2ccccc21` (configuration not stated): the survival is inactive: 108%.
The same measure for `COc1ccc(OC)c(CNC(=O)C2CCCCN2S(=O)(=O)c2ccc(F)cc2)c1` (configuration not stated): inactive: 58%; for `COc1ccc(C(=O)Nc2ccc(S(=O)(=O)N(Cc3ccccc3)c3ccccc3)cc2)cc1`: inactive: 75%.
`Cc1cc(OCC(O)CN2CCN(c3cccc(Cl)c3)CC2)ccc1Cl` (configuration not stated): the survival is active: -1%.
Turning to `COc1ccc(S(=O)(=O)Nc2cc3c(C(=O)OC(C)C)c(C)oc3c3ccccc23)cc1`, the survival is active: 38%.
On to `COc1ccc(CNC(=O)CN2C(=O)CCn3nc(-c4ccccc4)cc32)c(OC)c1`, for which the survival was inactive: 69%.
With `CC(CCc1ccccc1)NC(=O)CSc1n[nH]c(-c2ccc(F)cc2)n1` (configuration not stated), the survival was inactive: 126%.
The same measure for `COc1ccc(N2C(=O)Cc3cc(OC)c(OC)cc3C2c2ccc(F)cc2)cc1` (configuration not stated): inactive: 72%; for `CC12CC(C(C#N)=C(N)N1)c1ccccc1O2` (configuration not stated): inactive: 100%.
Take `Cc1cccc(Cn2cc(C(=O)Nc3cc(F)ccc3F)ccc2=O)c1`: the survival was inactive: 74%.
For `CCN(CC)C(=O)Cn1cnc2ccccc2c1=O` the value was inactive: 99%; for `COc1ccc(-c2ccc(CCC(=O)O)n2-c2ccccc2O)cc1`, inactive: 124%; for `CCc1ccccc1NC(=O)N1CC(C)Sc2ccccc21` (configuration not stated), inactive: 77%.
The same measure for `COc1ccccc1NC(=O)CN1C(=O)c2ccccc2Sc2ccc(C(=O)N3CCCC3)cc21`: inactive: 64%.
On to `O=C(c1cc2ccccc2oc1=O)N1CCSC1c1ccco1` (configuration not stated), for which the survival is inactive: 63%.
For `CC(=O)c1ccc(NC(=O)c2nc(-c3ccccc3)n(-c3ccccc3)n2)cc1` the value was inactive: 87%.
For the compound `O=C(Nc1ccc(Br)cc1F)N1CC=C(c2c[nH]c3ccccc23)CC1`, the survival is inactive: 82%.
The same measure for `CC(C)CC(OC(=O)c1cccs1)C(=O)NCc1cccs1` (configuration not stated): inactive: 81%.
The same measure for `CCCc1nn2c(=O)cc(COC(=O)c3ccc(NC(=O)C4CCCCC4)cc3)nc2s1`: inactive: 75%; for `CCc1nnc2c(Nc3ccc(N(CC)CC)cc3C)nc3ccccc3n12`: inactive: 109%; for `O=C(CSc1ncn[nH]1)N1CCCCC1`: inactive: 74%.
Take `Cc1cc(S(=O)(=O)Nc2ccc(C(=O)O)cc2)c(C)c(S(=O)(=O)c2ccc(Cl)cc2)c1`: the survival was inactive: 76%.
Turning to `COc1cccc(NS(=O)(=O)c2ccc3c(c2)N(C)C(=O)CC(=O)N3C)c1`, the survival is inactive: 72%.
Consider `COc1ccc(C)cc1NC(=O)c1cn(C)c(=O)c2cc(OC)c(OC)cc12`, for which the survival is inactive: 72%.
Take `C=CCNC(=S)N1CCN(C(=S)NCC=C)CC1`: the survival is inactive: 71%.
The same measure for `O=C(Cn1c(-c2ccccc2)noc1=O)Nc1ccc(N2CCCCCC2)cc1`: inactive: 88%.
For `Cc1ccc(Cl)cc1N1CCN(S(=O)(=O)c2cc(Br)cc3c2N(C(=O)C2CC2)CC3)CC1`, the survival is inactive: 70%.
On to `COc1ccc(-c2nn(-c3ccccc3)cc2C2NC(=O)NC(C)=C2C(=O)OC(C)C)cc1Cl` (configuration not stated), for which the survival is inactive: 106%.
The same measure for `CC(C)(C)OC(=O)N1CCC(c2c(C(=O)N3CCCCC3)cnn2-c2ccccc2Cl)CC1`: inactive: 74%; for `Cn1c(=O)oc2cc(S(=O)(=O)CCC(=O)NCCc3ccc(Cl)cc3)ccc21`: inactive: 78%; for `COc1ccc(NCc2cc3cc4c(cc3n(CC(=O)Nc3ccc(C)c(C)c3)c2=O)OCO4)cc1`: inactive: 73%.
The same measure for `COc1ccccc1OCc1nc(C#N)c(NCc2ccc(C)cc2)o1`: inactive: 83%; for `CCn1c(Cc2ccccc2)nnc1SCC(=O)N(C)C1CCCCC1`: inactive: 84%; for `Cn1c(=O)c2sccc2n2c(CCCC(=O)NC3CCCCC3)nnc12`: inactive: 77%.
On to `Cc1ccc(-n2nc(C)c3c(C)cc(=O)n(CC(=O)NC(C)c4ccccc4)c32)cc1` (configuration not stated), for which the survival was inactive: 100%.
The same measure for `COc1ccc(S(=O)(=O)N(CC(=O)Nc2cc(Cl)ccc2C)Cc2ccccc2)cc1OC`: inactive: 73%; for `CCOc1ccc(S(=O)(=O)Nc2cc3c(C(=O)OC)c(COC)oc3c3ccccc23)cc1`: inactive: 61%.
For `CCN1CCN(c2ccc(N=Cc3cccc(C)c3O)cc2)CC1` the value was inactive: 97%; for `CCOc1cc(-c2ccc(OC(=O)c3ccc(OC)cc3)c(OC)c2)cc(=O)c2c(C)oc(C)c12`, active: 41%.
For `CCOC(=O)CC(NC(=O)CCc1c(C)nc2c(c1C)c(=O)n(C)c(=O)n2C)c1ccc(OCC)c(OC)c1` (configuration not stated), the survival is inactive: 105%.
Regarding `CC(=O)Nc1ccc(NC(=O)C(Cc2ccccc2)NS(=O)(=O)c2ccc3c(c2)oc(=O)n3C)cc1` (configuration not stated), the survival was inactive: 90%.
For `CC(C)c1ccc(NS(=O)(=O)c2ccc3[nH]cc(C(=O)NCCc4ccccc4)c(=O)c3c2)cc1` the value was inactive: 73%; for `CCCCN(CC)CCNC(=O)C1CCCN(c2ncnc3onc(C)c23)C1` (configuration not stated), inactive: 85%.
For `COc1cc(Cl)c(NS(=O)(=O)c2cc(-c3cc(C)no3)ccc2OC)c(OC)c1` the value was inactive: 80%; for `CCOc1ccccc1NC(=O)C1CCN(S(=O)(=O)c2ccc3c(c2)CCCN3C(C)=O)CC1`, inactive: 75%.
For `Cc1ccc(COC(=O)c2[nH]c3c(c2C)C(=O)CC(c2ccc(N(C)C)cc2)C3)cc1` (configuration not stated) the value was inactive: 77%.
On to `COc1ccc2nc(SC)c(C#N)cc2c1`, for which the survival is inactive: 82%.
